# Results published in PubChem BioAssay AID1745853 (National Center for Advancing Translational Sciences (NCATS), 2022).
# Some of the results follow. Shown are side measurements of this screen, not its main read-out; they come without a call.
# Experiments:
# Assay in all cases: Primary Screen for Target Class Profiling of Small Molecule Inhibitors of Methyltransferases
# [1] = target: Glycine N-methyltransferase (Homo sapiens) (UniProt Q14749); details: purified enzyme, MTase-Glo SAH luminescence; measured here: GNMT inhibition; at 40 µM; stronger effect = lower value
# Outline: (§1)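 Each enzyme was reacted with SAM and its substrate, with compounds tested once at 40 uM; SAH formed was read by MTase-Glo luminescence.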
# [2] = target: Guanidinoacetate N-methyltransferase (Homo sapiens) (UniProt Q14353); details: purified enzyme, MTase-Glo SAH luminescence; measured here: GAMT inhibition; at 40 µM; stronger effect = lower value
# Outline: as §1
# [3] = target: Histamine N-methyltransferase (Homo sapiens) (UniProt P50135); details: purified enzyme, MTase-Glo SAH luminescence; measured here: HNMT inhibition; at 40 µM; stronger effect = lower value
# Outline: as §1
# [4] = target: Nicotinamide N-methyltransferase (Homo sapiens) (UniProt P40261); details: purified enzyme, MTase-Glo SAH luminescence; measured here: NNMT inhibition; at 40 µM; stronger effect = lower value
# Outline: as §1
# [5] = target: Phenylethanolamine N-methyltransferase (Homo sapiens) (UniProt P11086); details: purified enzyme, MTase-Glo SAH luminescence; measured here: PNMT inhibition; at 40 µM; stronger effect = lower value
# Outline: as §1
# % is set by controls: 0 for no effect and ±100 for the full control effect.
SMILES,"activity change, negative = inhibition [1]","activity change, negative = inhibition [2]","activity change, negative = inhibition [3]","activity change, negative = inhibition [4]","activity change, negative = inhibition [5]"
Cc1cccc(-c2nnn3c2nc(NCC2CCCO2)c2ccccc23)c1 (stereo not given),-8.12%,5.05%,-1.66%,1.76%,-7.53%
O=C(CSc1ccncc1)N1CCN2C(=O)N(Cc3ccccc3)C(=O)[C@H]2C1,-5.4%,-7.4%,-7.6%,-7.55%,-14.2%
O=C(O)[C@H]1C[C@H](C(=O)NCc2ccncc2)CN(C(=O)C2CCCC2)C1,-5.4%,0.153%,-1.52%,-4.18%,-2.24%
O=S(=O)(c1ccc(Cl)cc1)c1nnn2c1nc(NCc1ccccc1)c1ccccc12,-1.26%,1.84%,6.71%,10.1%,1.35%
CCCn1c(=O)c2ccccc2n2c(=O)n(Cc3ccc(C)cc3)nc12,3.87%,0%,11.3%,-8.51%,6.79%
CCCn1c(=O)c2ccccc2n2c(SCC(=O)Nc3cccc(F)c3)nnc12,-5.43%,0.98%,-2.02%,-8.5%,-2.16%
COc1cccc(-c2nnc3n(Cc4ccc(C)cc4)c(=O)c4ccccc4n23)c1O,-17.9%,-2.64%,-5.08%,-9.03%,-8.04%
CCOC(=O)c1cc2n(n1)CC(C)(C(=O)NC1CCCCC1)N(c1ccc(CC)cc1)C2=O (stereo not given),0.097%,2.79%,-9.78%,2.59%,0.383%
COc1ccccc1CN1C(=O)c2ccc(-c3ccccc3)n2CC1(C)C(=O)NC1CCCC1 (stereo not given),2.52%,3.99%,6.44%,-0.623%,2.35%
S=C(Nc1ccccc1)Nc1nccs1,-19.9%,11.3%,7.45%,-3.63%,4.03%
CCCn1c(=O)c2cc(F)ccc2n2c(SCC(=O)NC3CCCCC3)nnc12,4.14%,0%,8.13%,5.76%,5.79%
COc1ccc(CN2C(=O)O[C@@H]3CN(c4nc(C)cc(C)n4)C[C@@H]32)cc1OC,-4.03%,-7.75%,-1.72%,-8.83%,-9.17%
CC1(C(=O)NC2CCCCC2)Cn2c(cc3sccc32)C(=O)N1Cc1cccc(F)c1 (stereo not given),4.04%,0.685%,6.49%,-4.09%,2.69%
COCCOC1CCOC2(CCN(C(=O)c3cnccn3)CC2)C1 (stereo not given),-1.27%,-0.563%,1.41%,-0.598%,-2.04%
COCC(=O)N[C@H]1C[C@H]2C(=O)NC[C@@H](CCC(=O)N3CCN(c4ccccc4)CC3)N2C1,-5.92%,-3.35%,-3.89%,-5.42%,-5.94%
c1cc(-c2noc([C@@H]3CCCN3Cc3ncc[nH]3)n2)cc(N2CCCC2)n1,-8.31%,-6.51%,-12.1%,-14.5%,-6.25%
COCCOc1cc2nc[nH]c(=O)c2cc1OCCOC,2.25%,15.5%,6.52%,0.343%,7.88%
Cc1noc(C)c1CN1CCC2(CC1)C(C(=O)O)CC(=O)N2C (stereo not given),-4.84%,-2.45%,-1.04%,-8.23%,10.1%
CCC(C)NC(=O)c1ccc2c(=O)n(C(C)C)c3nn(CC(=O)N(C)c4ccccc4)c(=O)n3c2c1 (stereo not given),0.262%,4.87%,-2.1%,-0.771%,2.33%
Cc1c(C(=O)O)ccc2c1N[C@@H](c1cccc(C(F)(F)F)c1)[C@H]1CC=C[C@@H]21,-35.7%,-7.24%,-12.1%,-9.38%,-18.9%
